Measured values: the supplement of paper PMC10126150
Values marked as one replicate rest on one cluster of the flow cell; about a third of the high ones do not repeat.

System: ATP
Test: switch fluorescence ratio, 500 uM ATP over buffer (Cy3 cluster intensity, sum of 5 cycles each) (fold (ratio)); higher = stronger signal-on switching upon ATP binding; sequences stand for … in TCGTCGGCAGCGTCAGATGTGTATAAGAGACAGTTTTTTTTTTTTTTTTTTTTTTTTT…TC
Conditions: aptamer strand: ATP DNA aptamer (quencher-CACCTGGGGGAGTATTGCGGAGGAAGG + anchor), 100 nM annealed; ATP concentration: 500 uM; one replicate
In short: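 Five buffer/ATP imaging cycles were run on Cy3-labelled switching-strand clusters on a modified Illumina MiSeq flow-cell, with NaOH stripping and re-annealing between cycles. In each cycle, clusters annealed to 100 nM quencher-labelled ATP aptamer were imaged in selection buffer, then after 15 min with 500 uM ATP at 22 °C. Per cluster, the fluorescence ratio is summed target-cycle over summed buffer-cycle Cy3 intensity, averaged per switch-domain sequence. Only clusters within 100-1000 RFU were kept.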
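Further: ATP exposure 15 min at 22 °C before imaging.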

Sequence	switch fluorescence ratio
GCTATATTGC	1.1
AAGGTACCTG	0.985
CCGTTACCAC	1.42
GCCGATGAAT	0.985
AGCTACAGAG	0.994
GATCACTTTA	1.05
GTTCTAATTC	1.04
GGTTCATACT	1.03
CGCCTAGCCT	1.08
GACAGCTTTA	1.05
GCTAGGTGGG	0.94
AATAAACGAT	1.02
TTTGTAGGTT	1.07
CACAGTACCG	1.21
TTTCGGAATC	1.03
CCAAGTTTAG	1.07
TATAAAGAAC	1.35
TGATAGACGA	1.03
ATGATTTATG	0.983
ATTAAATAT	1.06
TATAAGGTAT	0.952
AGGGATTTCA	1.04
TCGTATTGTT	0.951
GCTGGACGTT	0.986
CGTAGCGTTG	1.04
AATGTCACAA	1.09

Sequence	switch fluorescence ratio
TCAGAAATCC	0.992
CACCTACCTG	1.3
AACCATGCGA	1.01
GAATATGTCA	0.946
AGCTAGGTAT	1.03
AATGATGAC	1.06
ATAGCCGACA	0.978
AAGCTGGGCC	1.02
ACTGCGCCCG	1.06
AGCCCCCAAT	2.74
GCACGCAACG	1.28
GATGACGGAA	1.04
ATTCCAAT	0.978
GGAATTGTCT	1
TCATGAGGTC	1.04
AGACGTCTGT	0.993
GGCATTACGT	1.16
CGCCCGGCAT	1.03
CGTACCTTTG	1.01
AAATGATCAG	0.961
CCGGCGGCTG	1.03
CCACAAGGG	1.16
CGGGTGCGCC	1.04
GATCTCCGTA	1.03
CCAGTCGGGT	0.996
TGGTTAGGAC	0.987

Sequence	switch fluorescence ratio
GGCCCTTTTG	0.963
GGCTGGTGAG	1.02
AAGTGCTGA	1.05
GATTCTTGGA	0.955
CGCTGTATTT	0.997
CACTCGGGGG	1.03
GATGCTGTGT	1.05
GGGCATGGAC	1.03
AAGGAGAGCA	0.96
GTTTGAGTGC	1.03
GAAAACCAGC	1.06
CGCAGCAGGC	2.5
TGGATTGTAA	0.949
ACGTCTATGA	1.05
ACGAAAACGT	1
CTCGTGGGTT	0.96
ATGCTTAACT	0.991
AAGGTACAGC	1.1
CGGGCGTGAA	1.03
ATACATTTTA	1.03
ATTTTACTAC	1.05
ACGAGCACGC	1.14
GGTCCCGCTA	1.06
CAAATCCAGC	0.979
TGTTACAAAT	1.07
ATAGTAGCG	0.962

Sequence	switch fluorescence ratio
AGCAGGCGAC	1.14
TGTCGATTCC	1.06
AAATCGTTGG	1.02
GGTTTGAAGT	0.996
ACGATAGGCA	1.06
AGTTTAAAAT	0.976
GTTCCGGCGG	1.02
CAGGATTCAT	0.949
TAACGGCTA	1.05
CCGGGAAAGA	0.975
TTATTGGCTA	0.978
TCATTTTAAT	1.18
GATTGCCTTG	1.03
CCTGTTGTTA	0.989
TACAGGGTGC	1.16
GGCCACGCAG	1.07
GGCCCATCAA	1.03
CCAACGAAAT	4.96
CCGACTTATG	1.06
AGCTGAGCGC	1.01
ATCGACACAG	0.995
GACAGATGCC	1.05
GGATGACCTC	0.995
TAGCGAAAGA	0.994
ATGAAACCCT	1.18
TCGGAGTCTT	0.982

Sequence	switch fluorescence ratio
AGGTTTCTCA	1.02
GCCGGGGTCC	0.993
GATTGGCATA	1.01
TTCTTCTGTA	1.02
TATAATTACT	1.05
GTACACGGAG	0.991
GCGACACGGA	1.04
TTGCGCAGGA	1.05
TATAAGTTCG	0.989
AACGCGCTAA	1.06
CTCATGGTGC	1.52
CATGCGGGA	1.08
TGTGTTTCTA	0.97
TTTGAGATAT	0.993
ATGAAGCGAC	1.83
ATACGTCAAC	1.29
AGCGAGATGT	0.978
TAGAGCAGCA	1.01
TGACCTCAGC	1.11
TGTTCCTGGT	1.01
CGACTTATCA	0.958
CGTCTTAATT	1.05
AGTTTTTGCA	0.937
CGGACCCTAA	1.08
TAGTCAAGTT	1.08
CTAAACGAGG	0.993

Sequence	switch fluorescence ratio
TCGCAGTGAT	1.44
GCTGGTAAAT	0.943
ACTGAAAATT	1.02
AAATTTCGCT	0.997
TCGGCAAATA	1.24
TATTATCATA	1.05
ACAGCGGA	1.1
CGTTCTGTTG	1
GCGAGAGTCT	1.16
GCCTACATGT	0.977
GTTTGATGT	0.964
CACATATTTA	0.998
GTCGAAGGAC	0.984
CGACCGCGCT	1.28
CAGGAAGGCG	0.973
ACAGCTGGTT	0.957
TCTTTCATTT	1.5
AATTGCCTCG	0.97
AAACTATGGT	1.04
CGAGGTCTCC	1
TTCATTGCT	0.963
TTGCTGAATC	1.05
TGTTCCTTAT	0.99
